The supplement of paper PMC12217912
This is one part of the list. Sequences were assembled here from the parent chain. Values near 0.05 are background.

B1: TEV protease; numbered along this chain (parent)
chain: MGESLFKGPRDYNPISSSICHLTNESDGHTTSLYGIGFGPFIITNKHLFRRNNGTLVVQSLHGVFKVKDTTTLQQHLVDGRDMIIIRMPKDFPPFPQKLKFREPQREERICLVTTNFQTKSMSSMVSDTSCTFPSGDGIFWKHWIQTKDGQCGSPLVSTRDGFIVGIHSASNFTNTNNYFTSVPKNFMELLTNQEAQQWVSGWRLNADSVLWGGHKVFMVKPEEPFQPVKEATQL

Variants of: B1
Experiment: raw area under fraction-flipped curve 0-4 h after induction (AUC4h, not background-subtracted), DNA-recorder readout of cleavage of the substrate (dimensionless); higher = more cleavage of the substrate by the protease variant
Settings: temperature: 34 °C; time window: 0-4 h after rhamnose induction
Protocol: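 In vivo DNA recorder in E. coli TOP10(DE3) ΔrhaA at 34 °C. Each TEVp single-site mutant (parent TEVp 0) is paired with a single-site variant of the 7-mer TEVs (canonical ENLYFQ|S). The substrate sits between flexible linkers in a Bxb1-sfGFP-TEVs-SsrA fusion, so cleavage stabilises Bxb1 and speeds flipping of a recombination array, read by NGS. The value is the raw area under the fraction-flipped curve over 0-4 h after rhamnose induction (AUC4h), with ≥20 reads per time point. It is not background-subtracted; inactive controls average about 0.047.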
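Further: Bxb1 expression induced with 0.2% (w/v) L-rhamnose at OD600 near 0.5, cultures sampled hourly, flipped fraction per protease–substrate barcode pair counted by paired-end Illumina sequencing.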

Variant	area with substrate ENAYFQS	area with substrate ENDYFQS	area with substrate ENEYFQS	area with substrate ENFYFQS	area with substrate ENHYFQS	area with substrate ENIYFQS	area with substrate ENMYFQS	area with substrate ENQYFQS	area with substrate ENVYFQS	area with substrate ENCYFQS	area with substrate ENGYFQS	area with substrate ENKYFQS	area with substrate ENNYFQS	area with substrate ENPYFQS	area with substrate ENRYFQS	area with substrate ENSYFQS	area with substrate ENWYFQS	area with substrate ENTYFQS	area with substrate ENYYFQS
G63Y	0.059	0.0576	0.0709	0.0544	0.049	0.0932	0.063	0.0698	0.0647										
F65W	0.076	0.0629	0.0509	0.0784	0.0566			0.0583	0.0815	0.0776	0.0787	0.066	0.0607	0.0622	0.06	0.0581	0.0723		
K66P	0.0604	0.0675	0.0673	0.0535	0.0442	0.0926			0.0757		0.0528	0.0517	0.0526			0.0374	0.0513	0.0575	
V67D	0.0342	0.0488	0.0357	0.0599	0.054	0.0699	0.0606	0.043			0.0513		0.0483	0.0699	0.0513	0.0523	0.0394	0.0588	0.0508
V67L	0.0632	0.0817	0.0467		0.0592		0.105			0.0501	0.0996	0.0696	0.0302	0.0504	0.066	0.0681			
V67T	0.0535	0.0868	0.0587	0.0607	0.0784	0.0939		0.0601	0.0704	0.0703	0.0614		0.0638		0.0648			0.0614	
K68T	0.0649	0.0623	0.0441				0.0735	0.0568			0.0627			0.0431		0.067		0.0675	0.0727
D69L	0.0574		0.0553	0.0632	0.043	0.0824		0.0614	0.0663	0.0671	0.0574	0.0473	0.0717	0.0668	0.0659	0.0601	0.0718	0.0687	0.0612
D69W	0.0547		0.0581		0.0653			0.0508	0.0704	0.0684			0.0609		0.0629	0.0698	0.0025	0.0282	0.0531
T70S	0.0461	0.0638		0.0574	0.0637	0.105	0.082	0.0879	0.0758	0.0692	0.0533	0.0663	0.0672	0.0529	0.0514	0.0652	0.0371	0.067	
T71C	0.052	0.0666	0.0605		0.0654	0.0948	0.0846	0.0534	0.0652					0.0614	0.047	0.0454	0.004	0.0576	
T71L	0.0652	0.0701	0.0544	0.0491		0.071	0.0683	0.0502	0.073		0.0697		0.0457		0.0667		0.0553	0.0448	
T71W	0.0914		0.0547	0.0546	0.0611	0.0968		0.0636	0.064				0.0682	0.105		0.0473	0.0545		0.0547
T72D	0.0464	0.0623	0.0747	0.0617		0.106		0.0735	0.0493	0.0622	0.0558	0.063	0.0613	0.0552	0.0612	0.0584		0.0664	
L73P	0.0572	0.0638	0.0668		0.0561			0.0638	0.0423		0.0554	0.0514	0.0429		0.0248		0.0328	0.0615	
L73Y	0.0627	0.0561	0.055	0.0507	0.0539	0.0678	0.0558	0.0568	0.0526	0.0519	0.0507	0.0657	0.0588			0.0464		0.0509	0.0466
Q74V	0.047	0.0691	0.0592	0.0587	0.0512			0.0694	0.0542	0.0979			0.0586	0.0657	0.0561	0.0691		0.0586	0.0553
Q75C	0.0556	0.0497	0.0671	0.0415	0.0646		0.109	0.0543	0.0706	0.0762	0.0578	0.0638	0.0731	0.0591	0.0629	0.0612		0.0598	
L77N	0.0482	0.0643	0.0703		0.0536	0.105	0.055	0.0733	0.039	0.0597	0.0596		0.0485	0.0596	0.0637	0.0574	0.0594	0.0584	0.0715
L77S	0.0584	0.0603	0.0532			0.0664	0.0593	0.0582	0.0609		0.0505		0.0601	0.0435	0.0582	0.0605		0.0514	
V78C	0.0574	0.0571	0.0602	0.0649	0.0609	0.11		0.0549	0.0608	0.0622			0.0803	0.0662	0.0556	0.063	0.06	0.0636	
V78S	0.0515	0.0595	0.0593	0.0544	0.0596	0.077		0.0538	0.0677					0.043	0.0437	0.0611	0.0542	0.0563	0.0583
M83T	0.055	0.0612	0.079	0.054		0.064	0.0761	0.0678	0.058	0.083		0.061		0.0592		0.0632		0.0609	
M83W	0.0433	0.0617	0.0708	0.0669			0.0526	0.0568	0.0444	0.0659	0.0794		0.0498	0.0426	0.054	0.0567	0.065		0.062
I85P	0.0431	0.04	0.0468		0.0241				0.0414	0.0382	0.0238	0.0389	0.0479	0.0451	0.0248	0.0391		0.0412	0.0521
